# This is one part of the list.
# Test system: PF3D7_0420300 AP2 domain 1 (GST-tagged)
# Test: gcPBM binding intensity (ln(normalized median fluorescence intensity)); higher = stronger DNA binding
# In short: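 GST-tagged P. falciparum DNA-binding domains produced in E. coli were incubated for 1 h on an Agilent 4 × 180k array of primer-extended double-stranded 36-bp intergenic genomic probes with negative controls. Binding intensity is the highest Masliner-normalised natural-log median intensity across replicate spots of either probe orientation, with bound protein detected by Alexa488 anti-GST antibody at 488 nm.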
row,Sequence,gcPBM binding intensity (ln)
1,AAGGTAGAAATATGTTGTACGGTTTGGAGGAAGCAA [XGTACX_site1105],9.38
2,ACATATATATTCATATGTACATATACATACATACAT [XGTACX_site4563],9.45
3,TTTTCATAAAATCATTGTACATTTATCGTATATTAA [XGTACX_site3855],9.17
4,AAAATATCTTATATATGTACATATTTATATTTATAT [XGTACX_site6027],9.22
5,ATATTGTAAGTAAACACACACACATATATATGTATA [CACACA_site8124],9.82
6,TTGTTTTTTTTTGGCTGTACGTTCATAAATTTTTTT [XGTACX_site4165],9.48
7,TTTTTTATAAAATTTTTTTTTTAAAATATTAAAACT [XGTACX_negctrl_site240],8.55
8,AAGCTATATATAGGCAGTACTTTGTAAGTGTAGATA [XGTACX_site8365],9.16
9,AAAAAAAAAAAAAAAACACACAGAACAATATATAAA [CACACA_site4698],9.76
10,TATATGCATATACATACACACATAACACATACGTTT [CACACA_site3832],9.66
11,ATATGTCACTTGTATACACACATATAGATTTCAATC [CACACA_site7519],9.52
12,TTTCTAATTCTTAGTGGTACACAGTTCTGCTGATAT [XGTACX_site2391],8.88
13,TATTTGTTGTGAGTCACACATATATATATATATATA [CACACA_site4240],9.32
14,ATATATGTATATTTTTGTACGCATAAATATATTTTT [XGTACX_site827],9.19
15,TTTTTATACAATTAGACACACACAAAAAGTATATAT [CACACA_site8272],9.64
16,TGCTTAATTTACGTGGGTACATACACCTCATATATT [XGTACX_site3093],9.46
17,TTAATACATATATATATATTATATATATATATATAT [TGCATGCA_negctrl_site177],8.93
18,TATTTTTCCATAAAAATTTATATAGAAACAAATAAT [GTGCAC_negctrl_site103],8.97
19,ATTATTTTAATTTTAATTTTTTTTTTTTTTTGTTTT [CACACA_negctrl_site1063],9.18
20,CCCTTTTATTAAAATTCACACACATAAATTTTTATA [CACACA_site8611],9.42
21,TACTATAAGATATATACACACAAGAAATACAAAACG [CACACA_site6764],10.1
22,ATGATTATTTTAAAAAGTACTAATTATTATTTTTTT [XGTACX_site7242],9.07

row,Sequence,gcPBM binding intensity (ln)
1,ATACACATTCGAAATAACAAAAAAATACATACACAT [GTGCAC_negctrl_site628],9.7
2,GAATATGAATATTTGCGTACTTATATAACTGTTCTA [XGTACX_site883],9.36
3,AAAAAAAATAATAATACACACAATATGATATGTACA [CACACA_site850],9.72
4,TTTTTATATTTTTGCACACATTCTTTACTCTTCAAA [CACACA_site2210],9.71
5,TATATATATGGACACACACACATATAAATAAATAAA [CACACA_site4406],10
6,TTAAAAAAAAAACACACACACATACACATATATATA [CACACA_site3299],10.1
7,TTTTTTTTTTTTTTTTTTTCTATTTTACTGTTTCGT [CACACA_negctrl_site850],8.29
8,ATAATTAATAAATAATGTACATATATATTATATTTT [XGTACX_site8546],9.19
9,TGTGAAGTACCGAATGTGCACTGTGTGTGTTCTTTT [GTGCAC_site9613],9.74
10,TTACCGTAAAAATTTTGTACATAAAATAATATATAA [XGTACX_site532],9.14
11,CACATACATATATATACACACAAATATATATACACA [CACACA_site8164],9.76
12,GTATGTGTGTCAAGTCGTACTTACCTTTAAATTTTT [XGTACX_site2507],9.7
13,GATATAAAATATTGGTGTACTTTTTTTTTTTTTTTT [XGTACX_site7174],9.23
14,ACCATGAAAATATTATGTACATATGTATTATATATA [XGTACX_site408],9.21
15,GAGTGAGCTAATAAAAGTACGTAATAAACAAACGCA [XGTACX_site131],9.47
16,ATAGCTGTATTTAATACACACAAAACTTTCATTCCA [CACACA_site5868],9.42
17,TTTTTTTGTTTTGTTTTTTTTTTTTTTTTTTTTTTG [CACACA_negctrl_site570],9.23
18,AAAAATATATAAAGAAAAAGAATATAATATAAAATA [GTGCAC_negctrl_site208],9.46
19,ATTGTAGAATTTAATAGTACTCACGAATAAAATAAA [XGTACX_site6280],9.15
20,GTTTATGTTAAACCATGTACTTAATATTTTATTCTT [XGTACX_site3761],9.4
21,AAAAAAAAAGTATTATGTACATAAAAATAAAAAAAT [XGTACX_site4166],9.42
22,TATTAAAATATGTCAGTTCTTAAAAAGTTGATGAGT [GTGCAC_negctrl_site77],9.08

# Source: the supplement of paper PMC11417369
